# Laboratory results taken from the supplement of paper PMC10037445.
# Over roughly 2,900 compounds, “NF-kB SEAP reporter activity, fold change vs agonist alone” has its median near 0.99; the highest 2% begin near 2.6. This is one part of the list.
# Experiments:
# RAW-Dual [1] = assay: NF-kB SEAP reporter activity, fold change vs agonist alone; cytotoxicity flag (confluency mask): not cytotoxic; higher = enhanced NF-kB activity
# Procedure, shortened: (§1)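 Reporter activity is given as fold change relative to agonist-alone wells. To measure it, 50 nL of library stock was pin-tooled onto RAW-Dual macrophages (50,000 cells/well, DMEM, 384-well plates), a PRR agonist followed 1 h later, and cells stayed at 37 °C, 5% CO2. Twenty hours on, supernatant was assayed for IRF (QuantiLuc luminescence) and NF-κB (QuantiBlue, 620 nm absorbance), and wells under 70% of agonist-control IncuCyte confluency in both mask sets were marked cytotoxic.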
# RAW-Dual [2] = assay: NF-kB SEAP reporter activity, fold change vs agonist alone; higher = enhanced NF-kB activity
# Procedure, shortened: as §1
# RAW-Dual [3] = assay: NF-kB SEAP reporter activity, fold change vs agonist alone; cytotoxicity flag (confluency mask): cytotoxic (confluency <70% of control); higher = enhanced NF-kB activity
# Procedure, shortened: as §1
# [4] = agonist: ODN 1826 (TLR9) 0.5 ug/mL
# [5] = agonist: Pam2CSK4 (TLR2/6) 0.1 ug/mL
# [6] = agonist: Pam3CSK4 (TLR2/1) 0.1 ug/mL
# [7] = library stock concentration (final ~1000-fold dilution): 10 mM, cytotoxicity flag (confluency mask): not cytotoxic, agonist: Imiquimod (TLR7) […]
# [8] = library stock concentration (final ~1000-fold dilution): 10 mM, cytotoxicity flag (confluency mask): not cytotoxic, agonist: MPLA (TLR4) […]
structure (smiles),measurement,setting,value
O=C1c2c(O)cccc2C(C2OC(CO)C(O)C(O)C2O)c2cc(CO)cc(O)c21 (stereo not given) (library stock concentration (final ~1000-fold dilution): 10 mM),NF-kB SEAP reporter activity,RAW-Dual [1]; agonist: LPS (TLR4) 0.1 ug/mL,0.895
same,NF-kB SEAP reporter activity,RAW-Dual [1]; [4],0.989
same,NF-kB SEAP reporter activity,RAW-Dual [1]; [5],1.03
same,NF-kB SEAP reporter activity,RAW-Dual [1]; [6],1.06
O=C1c2c(O)cccc2C(C2OC(CO)C(O)C(O)C2O)c2cc(CO)cc(O)c21 (stereo not given),NF-kB SEAP reporter activity,RAW-Dual [2]; [7],0.909
same,NF-kB SEAP reporter activity,RAW-Dual [2]; [8],0.972
O=c1cc(-c2ccc(O)c(-c3c(O)cc(O)c4c(=O)cc(-c5ccc(O)cc5)oc34)c2)oc2cc(O)cc(O)c12,NF-kB SEAP reporter activity,RAW-Dual [2]; [7],1.02
same,NF-kB SEAP reporter activity,RAW-Dual [2]; [8],1.24
O=c1cc(-c2ccc(O)c(-c3c(O)cc(O)c4c(=O)cc(-c5ccc(O)cc5)oc34)c2)oc2cc(O)cc(O)c12 (library stock concentration (final ~1000-fold dilution): 10 mM),NF-kB SEAP reporter activity,RAW-Dual [1]; agonist: LPS (TLR4) 0.1 ug/mL,0.895
same,NF-kB SEAP reporter activity,RAW-Dual [1]; [4],1.01
same,NF-kB SEAP reporter activity,RAW-Dual [1]; [5],0.932
same,NF-kB SEAP reporter activity,RAW-Dual [1]; [6],1.14
COc1ccccc1S(=O)(=O)Nc1ccc2c(c1)CN(C)C(=O)N2,NF-kB SEAP reporter activity,RAW-Dual [2]; [7],2.14
same,NF-kB SEAP reporter activity,RAW-Dual [2]; [8],2.51
COc1ccccc1S(=O)(=O)Nc1ccc2c(c1)CN(C)C(=O)N2 (library stock concentration (final ~1000-fold dilution): 10 mM),NF-kB SEAP reporter activity,RAW-Dual [1]; agonist: LPS (TLR4) 0.1 ug/mL,3.81
same,NF-kB SEAP reporter activity,RAW-Dual [1]; [4],2.25
same,NF-kB SEAP reporter activity,RAW-Dual [1]; [5],0.457
same,NF-kB SEAP reporter activity,RAW-Dual [1]; [6],1.4
CC(C)C1=CC2=CCC3C(C)(C(=O)O)CCCC3(C)C2CC1 (stereo not given) (library stock concentration (final ~1000-fold dilution): 10 mM),NF-kB SEAP reporter activity,RAW-Dual [1]; agonist: LPS (TLR4) 0.1 ug/mL,0.876
same,NF-kB SEAP reporter activity,RAW-Dual [1]; [4],0.965
same,NF-kB SEAP reporter activity,RAW-Dual [1]; [5],1.03
same,NF-kB SEAP reporter activity,RAW-Dual [1]; [6],0.83
CC(C)C1=CC2=CCC3C(C)(C(=O)O)CCCC3(C)C2CC1 (stereo not given),NF-kB SEAP reporter activity,RAW-Dual [2]; [8],1.07
CCCCC(=O)N(Cc1ccc(-c2ccccc2-c2nn[nH]n2)cc1)C(C(=O)O)C(C)C (stereo not given),NF-kB SEAP reporter activity,RAW-Dual [2]; [7],0.926
same,NF-kB SEAP reporter activity,RAW-Dual [2]; [8],1.01
CCCCC(=O)N(Cc1ccc(-c2ccccc2-c2nn[nH]n2)cc1)C(C(=O)O)C(C)C (stereo not given) (library stock concentration (final ~1000-fold dilution): 10 mM),NF-kB SEAP reporter activity,RAW-Dual [1]; agonist: LPS (TLR4) 0.1 ug/mL,1.18
same,NF-kB SEAP reporter activity,RAW-Dual [1]; [4],1.09
same,NF-kB SEAP reporter activity,RAW-Dual [1]; [5],1.1
same,NF-kB SEAP reporter activity,RAW-Dual [1]; [6],1
Cc1ccc(C(=O)Nc2ccc(CN3CCN(C)CC3)c(C(F)(F)F)c2)cc1C#Cc1cnc2cccnn12 (library stock concentration (final ~1000-fold dilution): 10 mM),NF-kB SEAP reporter activity,RAW-Dual [3]; agonist: LPS (TLR4) 0.1 ug/mL,0.182
same,NF-kB SEAP reporter activity,RAW-Dual [3]; [4],0.246
same,NF-kB SEAP reporter activity,RAW-Dual [3]; [5],0.111
same,NF-kB SEAP reporter activity,RAW-Dual [3]; [6],0.206
Cc1ccc(C(=O)Nc2ccc(CN3CCN(C)CC3)c(C(F)(F)F)c2)cc1C#Cc1cnc2cccnn12,NF-kB SEAP reporter activity,"RAW-Dual [2]; library stock concentration (final ~1000-fold dilution): 10 mM, cytotoxicity flag (confluency mask): cytotoxic (confluency <70% of control), agonist: Imiquimod (TLR7) […]",0.226
same,NF-kB SEAP reporter activity,"RAW-Dual [2]; library stock concentration (final ~1000-fold dilution): 10 mM, cytotoxicity flag (confluency mask): cytotoxic (confluency <70% of control), agonist: MPLA (TLR4) […]",0.221
COc1ccccc1C(=O)Nc1cc2c(cc1N1CCCCC1)n(C)c(=O)n2C,NF-kB SEAP reporter activity,RAW-Dual [2]; [7],1.02
same,NF-kB SEAP reporter activity,RAW-Dual [2]; [8],1.04
COc1ccccc1C(=O)Nc1cc2c(cc1N1CCCCC1)n(C)c(=O)n2C (library stock concentration (final ~1000-fold dilution): 10 mM),NF-kB SEAP reporter activity,RAW-Dual [1]; agonist: LPS (TLR4) 0.1 ug/mL,0.938
same,NF-kB SEAP reporter activity,RAW-Dual [1]; [4],0.981
same,NF-kB SEAP reporter activity,RAW-Dual [1]; [5],1.04
same,NF-kB SEAP reporter activity,RAW-Dual [1]; [6],1.09
CN1CCN(C(=O)c2ccc(-c3ccc4c(C=O)c(O)ccc4c3)s2)CC1,NF-kB SEAP reporter activity,RAW-Dual [2]; [7],1.08
same,NF-kB SEAP reporter activity,RAW-Dual [2]; [8],1.33
CN1CCN(C(=O)c2ccc(-c3ccc4c(C=O)c(O)ccc4c3)s2)CC1 (library stock concentration (final ~1000-fold dilution): 10 mM),NF-kB SEAP reporter activity,RAW-Dual [1]; agonist: LPS (TLR4) 0.1 ug/mL,1.18
same,NF-kB SEAP reporter activity,RAW-Dual [1]; [4],1.27
same,NF-kB SEAP reporter activity,RAW-Dual [1]; [5],0.649
same,NF-kB SEAP reporter activity,RAW-Dual [1]; [6],0.794
COc1ccc2c(Nc3cc(NC(=O)c4cccc(C(C)(C)C#N)c4)ccc3C)ncnc2c1 (library stock concentration (final ~1000-fold dilution): 10 mM),NF-kB SEAP reporter activity,RAW-Dual [1]; agonist: LPS (TLR4) 0.1 ug/mL,1.29
same,NF-kB SEAP reporter activity,RAW-Dual [1]; [4],0.631
same,NF-kB SEAP reporter activity,RAW-Dual [1]; [5],0.256
same,NF-kB SEAP reporter activity,RAW-Dual [1]; [6],0.424
COc1ccc2c(Nc3cc(NC(=O)c4cccc(C(C)(C)C#N)c4)ccc3C)ncnc2c1,NF-kB SEAP reporter activity,RAW-Dual [2]; [7],0.916
same,NF-kB SEAP reporter activity,RAW-Dual [2]; [8],1.18
O=C(c1cccc(Cl)c1F)N1CCN(Cc2cccc(Nc3nccs3)n2)CC1 (library stock concentration (final ~1000-fold dilution): 10 mM),NF-kB SEAP reporter activity,RAW-Dual [1]; agonist: LPS (TLR4) 0.1 ug/mL,0.665
same,NF-kB SEAP reporter activity,RAW-Dual [1]; [4],0.643
same,NF-kB SEAP reporter activity,RAW-Dual [1]; [5],0.543
same,NF-kB SEAP reporter activity,RAW-Dual [1]; [6],0.42
O=C(c1cccc(Cl)c1F)N1CCN(Cc2cccc(Nc3nccs3)n2)CC1,NF-kB SEAP reporter activity,RAW-Dual [2]; [7],0.802
same,NF-kB SEAP reporter activity,RAW-Dual [2]; [8],0.936
Oc1cc(O)c2c(c1)OC(c1ccc(O)c(O)c1)C(O)C2c1c(O)cc(O)c2c1OC(c1ccc(O)c(O)c1)C(O)C2 (stereo not given) (library stock concentration (final ~1000-fold dilution): 1 mM),NF-kB SEAP reporter activity,RAW-Dual [1]; agonist: LPS (TLR4) 0.1 ug/mL,1.44
same,NF-kB SEAP reporter activity,RAW-Dual [1]; [4],1.26
same,NF-kB SEAP reporter activity,RAW-Dual [1]; [5],1.13
same,NF-kB SEAP reporter activity,RAW-Dual [1]; [6],1.05
Oc1cc(O)c2c(c1)OC(c1ccc(O)c(O)c1)C(O)C2c1c(O)cc(O)c2c1OC(c1ccc(O)c(O)c1)C(O)C2 (stereo not given),NF-kB SEAP reporter activity,"RAW-Dual [2]; library stock concentration (final ~1000-fold dilution): 1 mM, cytotoxicity flag (confluency mask): not cytotoxic, agonist: Imiquimod (TLR7) […]",0.859
same,NF-kB SEAP reporter activity,"RAW-Dual [2]; library stock concentration (final ~1000-fold dilution): 1 mM, cytotoxicity flag (confluency mask): not cytotoxic, agonist: MPLA (TLR4) […]",1.21
CCOC(=O)C=P(c1ccccc1)(c1ccccc1)c1ccccc1,NF-kB SEAP reporter activity,RAW-Dual [2]; [7],0.715
same,NF-kB SEAP reporter activity,RAW-Dual [2]; [8],1.05
CCOC(=O)C=P(c1ccccc1)(c1ccccc1)c1ccccc1 (library stock concentration (final ~1000-fold dilution): 10 mM),NF-kB SEAP reporter activity,RAW-Dual [1]; agonist: LPS (TLR4) 0.1 ug/mL,0.964
same,NF-kB SEAP reporter activity,RAW-Dual [1]; [4],0.875
same,NF-kB SEAP reporter activity,RAW-Dual [1]; [5],0.894
same,NF-kB SEAP reporter activity,RAW-Dual [1]; [6],0.912
CC1OC(OC2CCC3(C)C(CCC4(C)C3C=CC35OCC6(CCC(C)(C)CC63)C(O)CC45C)C2(C)CO)C(O)C(OC2OC(CO)C(O)C(O)C2O)C1O (stereo not given) (library stock concentration (final ~1000-fold dilution): 10 mM),NF-kB SEAP reporter activity,RAW-Dual [3]; agonist: LPS (TLR4) 0.1 ug/mL,0.221
same,NF-kB SEAP reporter activity,RAW-Dual [3]; [4],0.257
same,NF-kB SEAP reporter activity,RAW-Dual [3]; [5],0.0991
same,NF-kB SEAP reporter activity,RAW-Dual [3]; [6],0.143
